From patent US20170233449A1 (Teva, published 2017)

Target: PD-1 on activated human CD4 T cells (human, UniProt Q15116 25-288)
Assay: cell-based or functional assay

Sequence of UniProt Q15116 (Q15116 25-288 limits assumed): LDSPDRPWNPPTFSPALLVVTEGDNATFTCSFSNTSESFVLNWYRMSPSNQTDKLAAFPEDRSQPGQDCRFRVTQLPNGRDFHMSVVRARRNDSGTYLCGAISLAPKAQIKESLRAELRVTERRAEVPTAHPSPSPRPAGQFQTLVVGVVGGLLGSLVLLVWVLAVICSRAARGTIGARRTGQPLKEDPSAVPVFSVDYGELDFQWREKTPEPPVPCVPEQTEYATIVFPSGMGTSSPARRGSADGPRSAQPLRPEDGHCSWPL

B1: J110-HC-L6-IL4 IgG1 (other)
heavy: DVQLQESGPGLVKPSQSLSLTCTVTGHSITSDYAWNWIRQFPGDKLEWMGYISYSGYTTYNPSLKSRVSITRDTSKNQFFLQLNSVTTEDTATYFCARDLDYGPWFAYWGQGTLVTVSA[in this place human IgG1 constant region]SGGGGSHKCDITLQEIIKTLNSLTEQKTLCTELTVTDIFAASKNTTEKETFCRAATVLRQFYSHHEKDTRCLGATAQQFHRHKQLIRFLKRLDRNLWGLAGLNSCPVKEANQSTLENFLERLKTIMREKYSKCSS
light: DIQMTQSPASLSASVGETVTLTCRASENIHNYLAWYQQKQGKSPQLLVYNVKTLADGVPSRFSGSGSGTQYSLKINSLQPEDFGSYYCQHFWSSPWTFGGGTKVEIKRTVAAPSVFIFPPSDEQLKSGTASVVCLLNNFYPREAKVQWKVDNALQSGNSQESVTEQDSKDSTYSLSSTLTLSKADYEKHKVYACEVTHQGLSSPVTKSFNRGEC
EC50 On Target (pM) Th1 Diversion: 31.8 pM

B2: J110-HC-L6-IL-4 (R88Q) IgG1 (other)
heavy: DVQLQESGPGLVKPSQSLSLTCTVTGHSITSDYAWNWIRQFPGDKLEWMGYISYSGYTTYNPSLKSRVSITRDTSKNQFFLQLNSVTTEDTATYFCARDLDYGPWFAYWGQGTLVTVSA[in this place human IgG1 constant region]SGGGGSHKCDITLQEIIKTLNSLTEQKTLCTELTVTDIFAASKNTTEKETFCRAATVLRQFYSHHEKDTRCLGATAQQFHRHKQLIRFLKRLDQNLWGLAGLNSCPVKEANQSTLENFLERLKTIMREKYSKCSS
light: B1 light
EC50 On Target (pM) Th1 Diversion: 46.1 pM
